The target in this assay is T1, hIL-17A (human, UniProt Q16552 24-155).
T1 construct: Bought protein
The assay can be described thus: ELISA of cleared E. coli lysate on plate-captured hIL-17A, detected with biotinylated anti-hIL-17RA and streptavidin-HRP, OD 450 nm; concentration not given. As for the experimental part:
ELISA plates (Griener Microlon 96W) were incubated with 100 μl of 0.5 μg/ml goat α-hIL-17A antibodies (R&D Systems) for 1 hour, washed with PBS supplemented with 0.05% Tween-80 (PBST) and 100 μl of 0.35 μg/ml hIL-17A (R&D Systems or ProSpec Tany TechnoGene Ltd.) were added to the plate for an additional 1 hour. The plates were then washed with PBST and blocked by incubation with 100 μl of PBS supplemented with 3% skim milk for 1 hour. Following blocking, the plates were washed and incubated with 100 μl of the cleared lysate, cell media or purified protein generated (described above) at appropriate dilutions and shaken for 1 hour. hIL-17RA (R&D Systems) was applied at a concentration of 6.25 μg/ml as a positive control, and PBS supplemented with 1% BSA as a negative control. Plates were then washed with PBST, incubated with 100 μl of 0.05 μg/ml goat α-hIL-17RA antibodies (R&D Systems) followed by a secondary peroxidase-conjugated streptavidin (Jackson, 1:10000 dilution). Finally, 100 μl of the horseradish peroxidase (HRP) chromogenic 3,3′,5,5′-tetramethylbenzidine (TMB) substrate solution (Dako) were added. The reaction was stopped by the addition of 1 M sulfuric acid and recorded at 450 nm using a Tecan Infinite M200 plate reader.

Chain of hIL-17A (Q16552 24-155 limits assumed): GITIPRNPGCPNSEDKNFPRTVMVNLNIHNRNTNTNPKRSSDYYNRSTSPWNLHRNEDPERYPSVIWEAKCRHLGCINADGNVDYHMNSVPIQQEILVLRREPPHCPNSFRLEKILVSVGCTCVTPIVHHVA

B1: ECD (receptor)
chain: not shown
notes: also called WT hIL17RA-ECD expressed in E. coli (Trx-6xHis-tagged); not shown: Thioredoxin (Trx)-6xHis tag and linker of pET32
On to B1, for which the binding result is reported as “binds”.
